# Assay results: the supplement of paper PMC12217912
# Some of the results follow. Sequences were assembled here from the parent chain. Inactive controls read about 0.05.
# B1: TEV protease; numbered along this chain (parent)
# chain: MGESLFKGPRDYNPISSSICHLTNESDGHTTSLYGIGFGPFIITNKHLFRRNNGTLVVQSLHGVFKVKDTTTLQQHLVDGRDMIIIRMPKDFPPFPQKLKFREPQREERICLVTTNFQTKSMSSMVSDTSCTFPSGDGIFWKHWIQTKDGQCGSPLVSTRDGFIVGIHSASNFTNTNNYFTSVPKNFMELLTNQEAQQWVSGWRLNADSVLWGGHKVFMVKPEEPFQPVKEATQL
# Variants of: B1
# Test: raw area under fraction-flipped curve 0-4 h after induction (AUC4h, not background-subtracted), DNA-recorder readout of cleavage of the substrate (dimensionless); higher = more cleavage of the substrate by the protease variant
# Details: temperature: 34 °C; time window: 0-4 h after rhamnose induction
# Experimental: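 In vivo DNA recorder in E. coli TOP10(DE3) ΔrhaA at 34 °C. Each TEVp single-site mutant (parent TEVp 0) is paired with a single-site variant of the 7-mer TEVs (canonical ENLYFQ|S). The substrate sits between flexible linkers in a Bxb1-sfGFP-TEVs-SsrA fusion, so cleavage stabilises Bxb1 and speeds flipping of a recombination array, read by NGS. The value is the raw area under the fraction-flipped curve over 0-4 h after rhamnose induction (AUC4h), with ≥20 reads per time point. It is not background-subtracted; inactive controls average about 0.047.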
# 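Also: Bxb1 expression induced with 0.2% (w/v) L-rhamnose at OD600 near 0.5, cultures sampled hourly, flipped fraction per protease–substrate barcode pair counted by paired-end Illumina sequencing.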
variant,measurement,value
MGESLFKGPRDYNPISSSICHLTNESDGHTTSLYGIGFGPFIITNKHLFRRNNGTLVVQSLHGVFKVKDTTTLQQHLVDGRDMIIIRMPKDFPPFPQKLKFREPQREERICLVTTNFQTKSMSSMKSDTSCTFPSGDGIFWKHWIQTKDGQCGSPLVSTRDGFIVGIHSASNFTNTNNYFTSVPKNFMELLTNQEAQQWVSGWRLNADSVLWGGHKVFMVKPEEPFQPVKEATQL [V126K],area with substrate ENLAFQS,0.0638
same,area with substrate ENLCFQS,0.0535
same,area with substrate ENLEFQS,0.0495
same,area with substrate ENLFFQS,0.0952
same,area with substrate ENLGFQS,0.0653
same,area with substrate ENLHFQS,0.102
same,area with substrate ENLIFQS,0.0789
same,area with substrate ENLKFQS,0.0877
same,area with substrate ENLLFQS,0.0716
same,area with substrate ENLNFQS,0.0554
same,area with substrate ENLPFQS,0.0538
same,area with substrate ENLSFQS,0.0654
same,area with substrate ENLTFQS,0.092
same,area with substrate ENLWFQS,0.0542
MGESLFKGPRDYNPISSSICHLTNESDGHTTSLYGIGFGPFIITNKHLFRRNNGTLVVQSLHGVFKVKDTTTLQQHLVDGRDMIIIRMPKDFPPFPQKLKFREPQREERICLVTTNFQTKSMSSMVNDTSCTFPSGDGIFWKHWIQTKDGQCGSPLVSTRDGFIVGIHSASNFTNTNNYFTSVPKNFMELLTNQEAQQWVSGWRLNADSVLWGGHKVFMVKPEEPFQPVKEATQL [S127N],area with substrate ENLAFQS,0.0637
same,area with substrate ENLCFQS,0.0845
same,area with substrate ENLDFQS,0.0594
same,area with substrate ENLEFQS,0.0599
same,area with substrate ENLFFQS,0.0951
same,area with substrate ENLHFQS,0.0873
same,area with substrate ENLIFQS,0.0754
same,area with substrate ENLKFQS,0.0686
same,area with substrate ENLNFQS,0.0765
same,area with substrate ENLSFQS,0.0619
same,area with substrate ENLWFQS,0.0848
MGESLFKGPRDYNPISSSICHLTNESDGHTTSLYGIGFGPFIITNKHLFRRNNGTLVVQSLHGVFKVKDTTTLQQHLVDGRDMIIIRMPKDFPPFPQKLKFREPQREERICLVTTNFQTKSMSSMVSDTFCTFPSGDGIFWKHWIQTKDGQCGSPLVSTRDGFIVGIHSASNFTNTNNYFTSVPKNFMELLTNQEAQQWVSGWRLNADSVLWGGHKVFMVKPEEPFQPVKEATQL [S130F],area with substrate ENLAFQS,0.0495
same,area with substrate ENLEFQS,0.0691
same,area with substrate ENLFFQS,0.073
same,area with substrate ENLHFQS,0.0594
same,area with substrate ENLIFQS,0.065
same,area with substrate ENLSFQS,0.0524
same,area with substrate ENLTFQS,0.0547
MGESLFKGPRDYNPISSSICHLTNESDGHTTSLYGIGFGPFIITNKHLFRRNNGTLVVQSLHGVFKVKDTTTLQQHLVDGRDMIIIRMPKDFPPFPQKLKFREPQREERICLVTTNFQTKSMSSMVSDTSCTFFSGDGIFWKHWIQTKDGQCGSPLVSTRDGFIVGIHSASNFTNTNNYFTSVPKNFMELLTNQEAQQWVSGWRLNADSVLWGGHKVFMVKPEEPFQPVKEATQL [P134F],area with substrate ENLAFQS,0.0651
same,area with substrate ENLFFQS,0.0779
same,area with substrate ENLGFQS,0.0824
same,area with substrate ENLHFQS,0.0558
same,area with substrate ENLKFQS,0.0603
same,area with substrate ENLLFQS,0.0549
same,area with substrate ENLNFQS,0.0603
same,area with substrate ENLPFQS,0.0739
same,area with substrate ENLQFQS,0.053
same,area with substrate ENLRFQS,0.0603
same,area with substrate ENLSFQS,0.0669
same,area with substrate ENLVFQS,0.0677
same,area with substrate ENLWFQS,0.0495
MGESLFKGPRDYNPISSSICHLTNESDGHTTSLYGIGFGPFIITNKHLFRRNNGTLVVQSLHGVFKVKDTTTLQQHLVDGRDMIIIRMPKDFPPFPQKLKFREPQREERICLVTTNFQTKSMSSMVSDTSCTFPEGDGIFWKHWIQTKDGQCGSPLVSTRDGFIVGIHSASNFTNTNNYFTSVPKNFMELLTNQEAQQWVSGWRLNADSVLWGGHKVFMVKPEEPFQPVKEATQL [S135E],area with substrate ENLAFQS,0.0613
same,area with substrate ENLCFQS,0.0629
same,area with substrate ENLDFQS,0.0706
same,area with substrate ENLEFQS,0.0632
same,area with substrate ENLHFQS,0.0577
same,area with substrate ENLKFQS,0.0626
same,area with substrate ENLMFQS,0.0438
same,area with substrate ENLNFQS,0.0686
same,area with substrate ENLQFQS,0.061
same,area with substrate ENLRFQS,0.0438
MGESLFKGPRDYNPISSSICHLTNESDGHTTSLYGIGFGPFIITNKHLFRRNNGTLVVQSLHGVFKVKDTTTLQQHLVDGRDMIIIRMPKDFPPFPQKLKFREPQREERICLVTTNFQTKSMSSMVSDTSCTFPMGDGIFWKHWIQTKDGQCGSPLVSTRDGFIVGIHSASNFTNTNNYFTSVPKNFMELLTNQEAQQWVSGWRLNADSVLWGGHKVFMVKPEEPFQPVKEATQL [S135M],area with substrate ENLAFQS,0.0715
same,area with substrate ENLCFQS,0.0603
same,area with substrate ENLDFQS,0.07
same,area with substrate ENLEFQS,0.0619
same,area with substrate ENLFFQS,0.0528
same,area with substrate ENLGFQS,0.0675
same,area with substrate ENLKFQS,0.0786
same,area with substrate ENLNFQS,0.0409
same,area with substrate ENLPFQS,0.0522
same,area with substrate ENLQFQS,0.0494
same,area with substrate ENLRFQS,0.0623
same,area with substrate ENLSFQS,0.0592
same,area with substrate ENLTFQS,0.0498
same,area with substrate ENLVFQS,0.031
MGESLFKGPRDYNPISSSICHLTNESDGHTTSLYGIGFGPFIITNKHLFRRNNGTLVVQSLHGVFKVKDTTTLQQHLVDGRDMIIIRMPKDFPPFPQKLKFREPQREERICLVTTNFQTKSMSSMVSDTSCTFPTGDGIFWKHWIQTKDGQCGSPLVSTRDGFIVGIHSASNFTNTNNYFTSVPKNFMELLTNQEAQQWVSGWRLNADSVLWGGHKVFMVKPEEPFQPVKEATQL [S135T],area with substrate ENLAFQS,0.0462
same,area with substrate ENLDFQS,0.0622
same,area with substrate ENLEFQS,0.0626
same,area with substrate ENLFFQS,0.0803
same,area with substrate ENLIFQS,0.0652
same,area with substrate ENLKFQS,0.0635
same,area with substrate ENLMFQS,0.0622
same,area with substrate ENLNFQS,0.0764
same,area with substrate ENLPFQS,0.0654
same,area with substrate ENLQFQS,0.0651
same,area with substrate ENLRFQS,0.0543
same,area with substrate ENLSFQS,0.0514
same,area with substrate ENLWFQS,0.054
MGESLFKGPRDYNPISSSICHLTNESDGHTTSLYGIGFGPFIITNKHLFRRNNGTLVVQSLHGVFKVKDTTTLQQHLVDGRDMIIIRMPKDFPPFPQKLKFREPQREERICLVTTNFQTKSMSSMVSDTSCTFPSIDGIFWKHWIQTKDGQCGSPLVSTRDGFIVGIHSASNFTNTNNYFTSVPKNFMELLTNQEAQQWVSGWRLNADSVLWGGHKVFMVKPEEPFQPVKEATQL [G136I],area with substrate ENLAFQS,0.0598
same,area with substrate ENLCFQS,0.103
same,area with substrate ENLDFQS,0.053
same,area with substrate ENLFFQS,0.0806
same,area with substrate ENLIFQS,0.0848
same,area with substrate ENLKFQS,0.081
same,area with substrate ENLLFQS,0.069
same,area with substrate ENLNFQS,0.0519
same,area with substrate ENLQFQS,0.0819
same,area with substrate ENLRFQS,0.0692
same,area with substrate ENLSFQS,0.0728
MGESLFKGPRDYNPISSSICHLTNESDGHTTSLYGIGFGPFIITNKHLFRRNNGTLVVQSLHGVFKVKDTTTLQQHLVDGRDMIIIRMPKDFPPFPQKLKFREPQREERICLVTTNFQTKSMSSMVSDTSCTFPSGGGIFWKHWIQTKDGQCGSPLVSTRDGFIVGIHSASNFTNTNNYFTSVPKNFMELLTNQEAQQWVSGWRLNADSVLWGGHKVFMVKPEEPFQPVKEATQL [D137G],area with substrate ENLAFQS,0.0488
same,area with substrate ENLCFQS,0.0695
same,area with substrate ENLDFQS,0.0589
same,area with substrate ENLFFQS,0.0879
same,area with substrate ENLIFQS,0.0816
same,area with substrate ENLKFQS,0.0846
same,area with substrate ENLLFQS,0.0623
same,area with substrate ENLNFQS,0.0598
same,area with substrate ENLQFQS,0.0603
same,area with substrate ENLRFQS,0.063
same,area with substrate ENLSFQS,0.0467
same,area with substrate ENLVFQS,0.0848
same,area with substrate ENLWFQS,0.0581
